Data from PMC9574860, “Chemical Toolkit for PARK7: Potent, Selective, and High-Throughput” (Journal of Medicinal Chemistry, 2022).
Out of some 7,900 compounds screened, about 400 (5.1%) showed an effect of 50% or more. Some of the results follow.

These compounds were tested against Parkinson's disease protein 7 (PARK7/DJ1) (human, UniProt Q99497) (assay: primary screen, percent inhibition; read as competition with a fluorescent probe by fluorescence polarization; higher = more effect of the substance). Conditions: 100 µM.
Parkinson's disease protein 7 (PARK7/DJ1), sequence (Q99497 whole entry, looked up, the tested form may be a part): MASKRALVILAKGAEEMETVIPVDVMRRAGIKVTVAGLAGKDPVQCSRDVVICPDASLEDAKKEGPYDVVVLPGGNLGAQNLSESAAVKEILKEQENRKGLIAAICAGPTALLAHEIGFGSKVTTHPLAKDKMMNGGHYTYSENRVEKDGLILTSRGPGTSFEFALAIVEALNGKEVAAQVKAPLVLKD
How it was run: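 Covalent fragments at 100 μM final were incubated 2 h with 0.2 μM PARK7, then 20 nM probe JYQ-107 added for a further 2 h. Fluorescence polarization read at 480/520 nm; relative FP loss versus reference controls gave remaining enzyme activity.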
CC1(C)OB(c2ccc(-n3cccn3)cc2)OC1(C)C showed an Inhibition % of 5.51%. Compound N#Cc1ncn(CC(=O)c2ccc(F)c(F)c2)n1 has an Inhibition % of 5.82%. COc1cc(C)c(S(=O)(=O)n2ccnc2)cc1C(C)C was tested, and the Inhibition % was 2.99%. For O=C1NCCN1CCCl, the Inhibition % was 4.06%. For CN1CCOC(CS)C1 (stereo not shown), the Inhibition % was 0.301%. Work on CCc1cc(SC#N)ccc1N yielded an Inhibition % of -1.87%. In the case of C=CC(=O)N1CCCC(N(C)Cc2noc(C)n2)CC1 (stereo not shown), the Inhibition % is reported as 1.13%. With COc1ccc(F)cc1S(=O)(=O)n1nc(C)cc1C the Inhibition % was 1.8%. N#CN(CC(=O)N1CCNC1=O)c1ccccc1 was tested, and the Inhibition % was 3.42%. For c1ccc(N2CCN(CC3OCCO3)CC2)cc1, the Inhibition % was 5.86%. For C=CC(=O)NC(C)C1=CCN(C)CC1 (stereo not shown), the Inhibition % was 13%. Cl.Cl.N#Cc1ccc(N2CCNCC2)cn1 was tested, and the Inhibition % was 5.75%. Compound CC(C)c1nn(C)cc1B1OC(C)(C)C(C)(C)O1 has an Inhibition % of 2.59%. CN(C)C(=O)c1ccc(CN2C(=O)CCC2=O)cc1 was tested, and the Inhibition % was 2.25%. Compound C=CC(=O)NC1c2ccccc2CCC1n1ccnc1 (stereo not shown) has an Inhibition % of 10.6%. Work on CNC(=O)C(C#N)=Cc1cccc(-c2ccncc2)c1 yielded an Inhibition % of 9.17%. c1ccc(C23CCOCC2O3)cc1 (stereo not shown) was tested, and the Inhibition % was -0.0704%. With COC(=O)c1cc(B2OC(C)(C)C(C)(C)O2)ccc1C the Inhibition % was 5.14%. Work on CC(C#N)NS(=O)(=O)c1cccc(S(=O)(=O)F)c1 (stereo not shown) yielded an Inhibition % of 102%. Work on CCCOc1cc(S(=O)(=O)n2ccc(C)n2)ccc1Cl yielded an Inhibition % of 2.03%. With CC1(C)OB(c2cc(CN3CCCC3)ccc2F)OC1(C)C the Inhibition % was 3.85%. Work on C=CC(=O)N1CC(C2CCOCC2)C1 yielded an Inhibition % of -1.92%. In the case of C=CC(=O)Nc1ccc2nc(C)nn2c1, the Inhibition % is reported as 12.2%. In the case of CCC(=O)N1CCC(NC(=O)c2cccnc2S)C1 (stereo not shown), the Inhibition % is reported as 5.25%. Compound Cc1cc(NC(=O)c2cccnc2S)ccc1O has an Inhibition % of 7.89%. Compound O=C(CC1OCCCO1)N1CCCC1c1cccc(Cl)c1 (stereo not shown) has an Inhibition % of 5.91%. Work on C=CC(=O)N[C@H]1C[C@H]1C(F)F (racemic) yielded an Inhibition % of 1.96%. In the case of C=CC(=O)N1CCCC(c2ccccc2)CC1 (stereo not shown), the Inhibition % is reported as 4.3%. Compound C1CCC(C2OCCO2)NC1 (stereo not shown) has an Inhibition % of 5.75%. C=CC(=O)N1CCN(Cc2ccc(Cl)cn2)CC1 gave an Inhibition % of 19.7%. In the case of O=C(NC1CCSC1)N1CCC(C2OCCO2)CC1 (stereo not shown), the Inhibition % is reported as 8.19%. With N#CC(=Cc1ccco1)C(N)=O the Inhibition % was 2.61%. Compound CS(=O)(=O)C(C#N)=Cc1ccc(-c2ccc(Cl)cc2)o1 has an Inhibition % of 4.14%. With O=C(CCN1C(=O)CCC1=O)Nc1ccc(F)cc1F the Inhibition % was 0.402%. CCCn1c(N)c(C(=O)CCl)c(=O)n(C)c1=O gave an Inhibition % of 38.9%. CN1C(=O)c2ccc(NC(=O)CCl)cc2C1=O showed an Inhibition % of 40.5%. CC(C)N1CCN(c2oc(-c3ccco3)nc2C#N)CC1 was tested, and the Inhibition % was 10%. For O=C(CCl)NCc1cc(Br)cs1, the Inhibition % was 4.52%. Compound C=CC(=O)NC1CCN2CCCC2C1 (stereo not shown) has an Inhibition % of 7.06%. Compound COc1ccc2cc(CN(C)C(=O)CCl)ccc2c1 has an Inhibition % of 8%. In the case of O=S(=O)(F)c1nc2ccccc2s1, the Inhibition % is reported as 12.9%. N#Cc1nccc(N)n1 gave an Inhibition % of 29.7%. Compound FC(F)(F)c1cccc(C2CO2)c1 (stereo not shown) has an Inhibition % of 2.09%. Compound CC(C)(C)n1cc(B2OC(C)(C)C(C)(C)O2)cn1 has an Inhibition % of 7.39%. For Cc1cc2ncn(C(=O)N(C)C)c2cc1C, the Inhibition % was 0.109%. For CC1(C)OB(c2ccc(OCCCN3CCCC3)cc2)OC1(C)C.Cl, the Inhibition % was 4.22%. O=C(O)c1csc(C(=O)CCl)c1 showed an Inhibition % of 102%. O=C(CCl)N(C1CCCC1)C1CCS(=O)(=O)C1 (stereo not shown) showed an Inhibition % of 7.16%. For Cn1c(SC2CCOC2=O)nnc1C(F)(F)F (stereo not shown), the Inhibition % was 6.64%. With COc1ccc(C)cc1NC(=O)CCl the Inhibition % was 14.5%. With C=CC(=O)NC1CCCN(c2ccccc2Cl)C1 (stereo not shown) the Inhibition % was 8.31%. Work on COC(=O)C1(NC(=O)CCl)CCCCC1 yielded an Inhibition % of 32.3%. C=CC(=O)N1CCN(Cc2nccn2C)CC1 gave an Inhibition % of 4.84%. Compound C=CC(=O)NCc1nn(-c2ccccc2)c2c1CCC2 has an Inhibition % of 5.96%. CSc1ccc(C=C(C#N)S(N)(=O)=O)cc1 gave an Inhibition % of 8.82%. Work on C=CC(=O)N1CCCC(n2cc(C)cn2)C1 (stereo not shown) yielded an Inhibition % of 10.7%. For N#CN(CC(=O)N1CCCCCC1)c1ccccc1, the Inhibition % was 7.03%. C=CC(=O)NCCN(C)S(=O)(=O)c1cccs1 showed an Inhibition % of 7.66%. C=CC(=O)NCC1CCC(C)(C)CO1 (stereo not shown) was tested, and the Inhibition % was 28.6%. With O=S(=O)(Oc1ccc(F)c(F)c1)c1cncc(F)c1 the Inhibition % was 4.3%. Work on C=CC(=O)N1CCCC(c2nc(C)no2)C1 (stereo not shown) yielded an Inhibition % of 6.59%. In the case of CC(=O)Nc1cccc(NC(=O)CCl)c1, the Inhibition % is reported as 19.2%. N#CN(C[C@H]1C[C@@H](O)C1)c1ccc(F)cc1 showed an Inhibition % of 3.41%. C=CC(=O)N1CCOc2ccc(C)cc2C1 gave an Inhibition % of 4.58%. In the case of C=CCOc1ccc(Oc2nccnc2C#N)cc1, the Inhibition % is reported as 6.2%. Compound Cc1cccc(B2OC(C)(C)C(C)(C)O2)c1Cl has an Inhibition % of 5.32%. O=C(CCl)Nc1ccc2c(c1)CCC2 gave an Inhibition % of 57.8%. In the case of CC1(C)OB(c2cccc3c2OCO3)OC1(C)C, the Inhibition % is reported as -1.61%. Work on Cc1ccc(C=C(C#N)c2ccccn2)o1 yielded an Inhibition % of 23.3%. Work on CCCNC(=O)C(C#N)=Cc1ccc(O)nc1 yielded an Inhibition % of 11.6%. With C=CC(=O)NC1CCN(c2nnnn2C)CC1 the Inhibition % was 11%. Compound C=CC(=O)N[C@H]1CCO[C@@H]1c1ccnn1CC1CC1 has an Inhibition % of -2.72%. NC(=O)C1CCN(C(=O)Oc2ccccc2)CC1 was tested, and the Inhibition % was 0.775%. Work on Cc1c(NC(=O)CCCl)c(=O)n(-c2ccccc2)n1C yielded an Inhibition % of 3.62%. For C=CC(=O)Nc1ccnn1C, the Inhibition % was 7.37%. Work on Cc1cnccc1NS(=O)(=O)c1ccc(S(=O)(=O)F)cc1 yielded an Inhibition % of 18.9%. With C=CC(=O)N1CCCC(c2n[nH]c(=O)o2)C1 (stereo not shown) the Inhibition % was 1.49%. O=S(=O)(F)c1ccc2[nH]ncc2c1 gave an Inhibition % of 53%. With C=CC(=O)N1CCOC(C(F)F)CC1 (stereo not shown) the Inhibition % was 4.09%.
